Assay results from paper PMC4336329 (PLoS ONE, 2015).
Screen size: about 310,000 compounds; about 2,200 (0.71%) showed an effect of 50% or more. Effects have a minus sign here. Some of the results follow.

What follows are molecules tested against human ether-à-go-go-related gene (hERG) potassium channel (human, UniProt Q12809) (assay: primary screen, population patch clamp on CHO cells stably expressing hERG).
human ether-à-go-go-related gene (hERG) potassium channel, sequence (Q12809 whole entry, looked up): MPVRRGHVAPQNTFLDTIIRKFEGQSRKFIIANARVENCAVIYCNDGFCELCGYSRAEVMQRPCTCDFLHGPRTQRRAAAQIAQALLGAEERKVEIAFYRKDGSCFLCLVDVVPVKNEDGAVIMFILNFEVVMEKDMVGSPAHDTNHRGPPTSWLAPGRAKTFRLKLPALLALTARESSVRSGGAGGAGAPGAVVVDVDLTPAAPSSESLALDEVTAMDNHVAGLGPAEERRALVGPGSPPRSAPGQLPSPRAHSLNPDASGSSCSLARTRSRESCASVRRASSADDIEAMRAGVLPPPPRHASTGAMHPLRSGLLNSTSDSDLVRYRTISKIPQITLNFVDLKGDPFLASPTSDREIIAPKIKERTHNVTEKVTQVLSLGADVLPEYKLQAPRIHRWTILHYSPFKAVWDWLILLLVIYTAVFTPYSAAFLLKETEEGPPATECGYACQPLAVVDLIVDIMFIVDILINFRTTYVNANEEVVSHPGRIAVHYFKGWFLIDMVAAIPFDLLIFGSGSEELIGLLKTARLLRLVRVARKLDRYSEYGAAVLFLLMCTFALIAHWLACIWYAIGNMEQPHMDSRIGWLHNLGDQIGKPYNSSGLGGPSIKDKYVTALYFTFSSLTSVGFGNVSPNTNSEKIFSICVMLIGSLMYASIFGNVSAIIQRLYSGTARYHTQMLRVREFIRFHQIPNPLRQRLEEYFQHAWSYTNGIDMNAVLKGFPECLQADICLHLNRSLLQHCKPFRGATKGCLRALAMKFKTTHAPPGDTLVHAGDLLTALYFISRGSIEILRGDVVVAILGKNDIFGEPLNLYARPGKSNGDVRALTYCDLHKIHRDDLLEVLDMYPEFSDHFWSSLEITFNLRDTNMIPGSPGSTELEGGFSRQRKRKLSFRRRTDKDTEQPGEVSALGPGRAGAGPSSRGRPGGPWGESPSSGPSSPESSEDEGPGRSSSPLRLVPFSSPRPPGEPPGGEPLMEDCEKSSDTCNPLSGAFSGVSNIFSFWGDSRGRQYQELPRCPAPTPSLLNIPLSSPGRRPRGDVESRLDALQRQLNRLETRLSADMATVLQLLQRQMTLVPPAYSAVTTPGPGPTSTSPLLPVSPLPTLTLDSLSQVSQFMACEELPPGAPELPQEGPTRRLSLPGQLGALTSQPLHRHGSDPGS
For `CC(C)NC(=O)c1ccc(-c2cccc(C(F)(F)F)c2)o1`, the “hERG current change (%, negative = inhibition) at 1uM” value was 5.29%. For `Cc1cc(C)c(S(=O)(=O)N2CCN(c3ccc([N+](=O)[O-])c(NCc4ccco4)c3)CC2)c(C)c1`, the “hERG current change (%, negative = inhibition) at 1uM” value was 14.3%. In the case of `CCC1SC2=NC(C)=C(C(=O)OC)C(c3ccc(C(=O)OC)cc3)N2C1=O` (stereo not drawn), the “hERG current change (%, negative = inhibition) at 1uM” value is reported as 8.66%. In the case of `Cc1ccc(C)c(C(=O)COC(=O)CCCC(=O)Nc2cc(C(F)(F)F)ccc2Cl)c1`, the “hERG current change (%, negative = inhibition) at 1uM” value is reported as 16.3%. `Cc1ccc(NC(=O)c2cccc(OCc3c(C)noc3C)c2)cc1S(=O)(=O)Nc1ccccc1Cl` was tested, and the “hERG current change (%, negative = inhibition) at 1uM” value was 1.63%. In the case of `COc1ccc(CC(=O)NCc2n[nH]c(=S)n2-c2ccccc2)cc1`, the “hERG current change (%, negative = inhibition) at 1uM” value is reported as 10.4%. `COc1cc(/C=N/NC(=O)CNC(=O)/C=C/c2ccco2)cc(OC)c1OC` was tested, and the “hERG current change (%, negative = inhibition) at 1uM” value was 17.3%. With `Cc1ccc2c(ccc[n+]2CC(=O)c2ccccc2)c1.[Br-]` the “hERG current change (%, negative = inhibition) at 1uM” value was 2.12%. In the case of `CCN1CCN(Cc2nnnn2C(C)(C)C)CC1`, the “hERG current change (%, negative = inhibition) at 1uM” value is reported as 8.31%. In the case of `CCCOP(=O)(OCCC)C(Nc1cccc(C(F)(F)F)c1)c1ccc(C)cc1` (stereo not drawn), the “hERG current change (%, negative = inhibition) at 1uM” value is reported as 21%. In the case of `C=CCN(c1ccccc1)S(=O)(=O)c1cccc(C(=O)NCc2ccncc2)c1`, the “hERG current change (%, negative = inhibition) at 1uM” value is reported as 9.97%. For `Cc1ccc(S(=O)(=O)c2cc3c(=O)n4ccccc4nc3n(Cc3ccco3)c2=N)cc1`, the “hERG current change (%, negative = inhibition) at 1uM” value was -0.218%. With `CC1CCN(C(=O)c2ccc(S(=O)(=O)NCc3ccco3)cc2)CC1` the “hERG current change (%, negative = inhibition) at 1uM” value was 18.1%. With `COc1cc(OC)cc(C(=O)Nn2cc(C(=O)Nc3ccc(F)cc3F)c3ccccc3c2=O)c1` the “hERG current change (%, negative = inhibition) at 1uM” value was 7.39%. `COC(=O)c1c(NC(=O)C2CC2)sc(C(=O)Nc2ccccc2)c1C` was tested, and the “hERG current change (%, negative = inhibition) at 1uM” value was 7.6%. For `COCCNC(=O)CS(=O)(=O)Cc1nc(-c2ccc(C)cc2)oc1C`, the “hERG current change (%, negative = inhibition) at 1uM” value was 1.89%. `Cc1ccc(CNC(=O)Cn2nnc(C(=O)Nc3cc(C)ccc3C)c2N)cc1` was tested, and the “hERG current change (%, negative = inhibition) at 1uM” value was 10.1%. With `N#CC(c1ccc(Cl)cc1)(c1ncc(C(F)(F)F)cc1Cl)N1CCOCC1` (stereo not drawn) the “hERG current change (%, negative = inhibition) at 1uM” value was -5.04%. In the case of `OCC1(CCOc2ccccc2)CCN(Cc2ccccc2C(F)(F)F)CC1`, the “hERG current change (%, negative = inhibition) at 1uM” value is reported as 3.9%. In the case of `CN(c1ccc(OCc2nnc(-c3ccccc3)o2)cc1)S(=O)(=O)c1ccccc1`, the “hERG current change (%, negative = inhibition) at 1uM” value is reported as 0.492%. `O=C(O)CCCC(=O)N1CCc2cc(S(=O)(=O)NCc3ccccc3)ccc21` was tested, and the “hERG current change (%, negative = inhibition) at 1uM” value was 9.22%. For `CC1CCN(C(=O)CCCC(=O)N2CCC(C)CC2)CC1`, the “hERG current change (%, negative = inhibition) at 1uM” value was 2.15%. For `Cc1cc(C)n2nc(C(=O)OCC(=O)N(C)CC(=O)Nc3ccccc3Cl)nc2n1`, the “hERG current change (%, negative = inhibition) at 1uM” value was 12.9%. With `CCOC(=O)CNC(=O)CSc1nnc(NC(=O)c2ccc3c(c2)OCO3)s1` the “hERG current change (%, negative = inhibition) at 1uM” value was 3.77%. With `Cc1ccc(S(=O)(=O)N2CCN(CC(=O)N/N=C/c3ccco3)CC2)cc1` the “hERG current change (%, negative = inhibition) at 1uM” value was -3.37%. For `Cc1cccc(OCCCOc2cccc3cccnc23)c1C`, the “hERG current change (%, negative = inhibition) at 1uM” value was 11.2%. With `O=C(CSc1ncn[nH]1)Nc1ccc(S(=O)(=O)N2CCCC2)cc1` the “hERG current change (%, negative = inhibition) at 1uM” value was 14.9%. In the case of `N/C(=N\N=C\c1ccc2c(c1)OCO2)c1nonc1N`, the “hERG current change (%, negative = inhibition) at 1uM” value is reported as 10%. In the case of `Cc1ccc(C(=O)Oc2oc(-c3ccco3)nc2C=Nc2ccc(Cl)cc2)cc1`, the “hERG current change (%, negative = inhibition) at 1uM” value is reported as 7.08%. For `CCOc1ccc(-c2nc(CSCC(=O)N3CCN(c4cccc(OC)c4)CC3)c(C)o2)cc1`, the “hERG current change (%, negative = inhibition) at 1uM” value was 6.52%. For `COc1ccc(S(=O)(=O)N2CCN(c3ccc4nnc(-c5ccccc5)n4n3)CC2)cc1`, the “hERG current change (%, negative = inhibition) at 1uM” value was -47.8%. In the case of `O=C1c2ccccc2C(=O)N1/N=C/c1ccc(Oc2ccc([N+](=O)[O-])cn2)cc1`, the “hERG current change (%, negative = inhibition) at 1uM” value is reported as -12.4%. For `COc1ccc(-c2nn(-c3ccccc3)cc2/C=C(/C#N)C(N)=O)cc1[N+](=O)[O-]`, the “hERG current change (%, negative = inhibition) at 1uM” value was 5.42%. For `CC(C)CNC(=O)COC(=O)/C=C/c1ccco1`, the “hERG current change (%, negative = inhibition) at 1uM” value was 6.36%. `CCOC(=O)C1(CCc2ccccc2)CCN(Cc2cccc3cnccc23)CC1` was tested, and the “hERG current change (%, negative = inhibition) at 1uM” value was -4.67%. With `[Cl-].[NH3+][C@@H](Cc1ccccc1)C(=O)N1CCOCC1` the “hERG current change (%, negative = inhibition) at 1uM” value was 15.1%. In the case of `CCOC(=O)C1=C(c2ccccc2)NC(=O)NC1c1cc(OCC)c(O)c([N+](=O)[O-])c1` (stereo not drawn), the “hERG current change (%, negative = inhibition) at 1uM” value is reported as 18%. For `O=C(NC1CCN(Cc2ccccc2)CC1)c1ccc(S(=O)(=O)NCc2ccco2)cc1`, the “hERG current change (%, negative = inhibition) at 1uM” value was 4.96%. For `O=C1c2ccccc2C(=O)N1CC(O)COc1ccc(Br)cc1` (stereo not drawn), the “hERG current change (%, negative = inhibition) at 1uM” value was 10.6%. `CC(=O)Nc1ccc(N2C(=O)C3C4C=CC(CC4)C3C2=O)cc1` (stereo not drawn) was tested, and the “hERG current change (%, negative = inhibition) at 1uM” value was 2.85%. With `Cc1cccc(NC(=S)N2CCN(C(=O)c3ccco3)CC2)c1` the “hERG current change (%, negative = inhibition) at 1uM” value was 5.07%. For `CCOC(=O)c1c(NC(=O)c2cccnc2)sc(C(C)=O)c1C`, the “hERG current change (%, negative = inhibition) at 1uM” value was 6.21%.
